{"source": "PubChem BioAssay AID1345083", "about": "(National Center for Advancing Translational Sciences (NCATS), 2018)", "note": "Several values for one entry are separate records, joined by “and”; a condition that tells them apart may be missing. Identical values can stand only once. Hit rate of the full screen: of about 94,000 compounds, about 6,200 (6.6%) were called active. The shares of active, inactive and inconclusive entries below differ from those in the screen. Calls follow the shape of the dose curve; as a rule, active = well fitted inhibition curve with a large enough effect; inconclusive = small, poorly fitted or top-dose-only effect; inactive = flat fitted curve, though single readings scatter. Potencies of inconclusive entries are doubtful fits and often do not repeat. Potency is read from the fitted curve at half-maximal effect; tags tell the direction and shape of the fitted curve."}
{"assay": "Cytotoxic Profiling in HEK 293 Cell Line of Diverse Libraries Using Quantitative High-Throughput Screening; also: nearly all actives have a fitted effect of over 60% in size", "details": "HEK 293 viability, ATP luminescence (CellTiter-Glo), 48-72 h; series mostly up to 115 µM", "summary_of_the_method": "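HEK 293 cells seeded at 250 cells/well were exposed to compound for 48 or 72 hr at 37 degree Celsius. Viability taken as ATP content by CellTiter-Glo luminescence.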"}
{"smiles": "c1cc(-c2cc3c(ccn3Cc3ccncc3)c(N3CCOCC3)n2)c2[nH]ncc2c1", "Potency": "active: 89.1 µM"}
{"smiles": "O=C(CCc1ccc2c(c1)OCO2)N1Cc2ccccc2C(O)C1", "note": "(centres undefined)", "Potency": "inactive"}
{"smiles": "CC(C)(C)c1ccc(NC(=O)O[C@@H]2CO[C@H]3[C@@H]2OC[C@@H]3Nc2nccc(-c3cccs3)n2)cc1", "Potency": "inconclusive: 35.5 µM [inhibitor, partial curve, poor fit]"}
{"smiles": "O=C(NCc1ccccc1F)c1cc(-c2ccc(Cl)cc2Cl)c2nncn2n1", "Potency": "inconclusive: 50.1 µM [inhibitor, partial curve, poor fit]"}
{"smiles": "Cc1ccc(C)c(-c2cc3c(=O)n(CCNC(=O)c4ccc(C#N)cc4)ccn3n2)c1", "Potency": "active: 12.6 µM"}
{"smiles": "COc1ccc2cc(C3CN(CCC(=O)NC(C)(C)C)CCO3)ccc2c1", "note": "(centres undefined)", "Potency": "active: 44.7 µM"}
{"smiles": "CCN1CCN(C(=O)C2CCc3sc(C(=O)N4CCCCC4)cc3C2)CC1", "note": "(centres undefined)", "Potency": "inconclusive: 35.5 µM [inhibitor, partial curve, poor fit]"}
{"smiles": "C[S+](=O)([O-])c1ccc(-c2nnc3ccc(C(=O)NCc4cccs4)cn23)cc1", "Potency": "inactive"}
{"smiles": "Cc1cn2nc(C(=O)NC(C)c3ccccc3)cc2c(N2CCSCC2)n1", "note": "(centres undefined)", "Potency": "inconclusive: 50.1 µM [inhibitor, partial curve, poor fit]"}
{"smiles": "Nc1ncccc1CN1CCC2(CC1)COCCN2C(=O)OCc1ccccc1", "Potency": "inconclusive: 35.5 µM [inhibitor, partial curve, poor fit]"}
{"smiles": "CCOC(=O)[C@@H]1CN(C(C)=O)[C@H]2c3ccc(OC)cc3O[C@@H]12", "Potency": "inconclusive: 31.6 µM [inhibitor, full curve]"}
{"smiles": "Cc1cc(C)cc(Nc2nc(C)cc(=O)n2CC(=O)Nc2ccc(Br)cc2)c1", "Potency": "inconclusive: 50.1 µM [inhibitor, partial curve, poor fit]"}
{"smiles": "COc1ccc(C(=O)N2CCCCCCNC(=O)[C@@H]3C[C@@H](c4nc(C(C)C)no4)C[C@@H]32)cn1", "Potency": "inactive"}
{"smiles": "CNC(=O)CNC(=O)c1cccc(-c2ccc(SC)cc2)c1", "Potency": "inconclusive: 63.1 µM [inhibitor, partial curve, poor fit]"}
{"smiles": "CCCC(O)CN1CCC(=O)N(CC2CC2)Cc2ccccc21", "note": "(centres undefined)", "Potency": "inconclusive: 79.4 µM [inhibitor, single point]"}
{"smiles": "Cc1ccc(C2NC(=O)N(CC(=O)NCCc3ccc(Cl)cc3)C3=C2C(=O)OC3)cc1", "note": "(centres undefined)", "Potency": "inconclusive: 56.2 µM [inhibitor, partial curve, poor fit]"}
{"smiles": "Cc1cccc2nc(CNC(=O)c3cc(COc4ccc(F)cc4F)on3)cn12", "Potency": "inconclusive: 28.2 µM [inhibitor, full curve, poor fit]"}
{"smiles": "O=C(NC1CCN(c2nccc(Nc3ccccc3Cl)n2)CC1)c1ccc(C(F)(F)F)cc1", "Potency": "active: 39.8 µM"}
{"smiles": "O=C(Nc1ccccc1F)N1CC(Oc2ccc(-c3nc(-c4ccccc4)no3)cc2)C1", "Potency": "inactive"}
{"smiles": "CC(C)(Oc1nn(CCOc2ccccc2)c2ccccc12)C(=O)NCCCn1ccnc1", "Potency": "inconclusive: 89.1 µM [inhibitor, single point]"}
{"smiles": "O[C@@H]1C[C@@H](c2nc(-c3ccccn3)no2)N(Cc2cccs2)C1", "Potency": "inconclusive: 126 µM [inhibitor, single point]"}
{"smiles": "CCN1Cc2cc(OC)ccc2N(C[C@@H](O)COCc2ccccc2)CCC1=O", "Potency": "inactive"}
{"smiles": "CCN(CC)C(=O)N1CCO[C@@H](COc2ccccn2)[C@@H]1c1ccccc1", "Potency": "inactive"}
{"smiles": "Cc1cnc(-c2ccncc2)n1CCC1CCN(C(=O)C(C)Oc2ccccc2)CC1", "note": "(centres undefined)", "Potency": "active: 44.7 µM"}
{"smiles": "CNC(=O)c1cccc(Nc2ncc3c(n2)CN([S+](=O)([O-])c2cccc(OC)c2)CCN3)c1", "Potency": "inconclusive: 50.1 µM [inhibitor, partial curve, poor fit]"}
{"smiles": "COc1ccc(C(=O)N2CCC3(CC2)N=C(c2ccc(Br)cc2)NO3)cc1OC", "Potency": "inconclusive: 56.2 µM [inhibitor, partial curve, poor fit]"}
{"smiles": "COc1ccccc1-c1ccc(C(=O)N2CCCC[C@H](N(C)C)C2)cc1", "Potency": "inconclusive: 50.1 µM [inhibitor, partial curve, poor fit]"}
{"smiles": "CCC(C)NC(=O)CC1=CSC2=NC(C)=C(C(=O)Nc3ccccc3)C(c3cccc(C)c3)N12", "note": "(centres undefined)", "Potency": "inconclusive: 50.1 µM [inhibitor, partial curve, poor fit]"}
{"smiles": "O=C(C1CC1)N1CCC(Oc2cnc3c(ccn3-c3cncnc3)c2)CC1", "Potency": "inconclusive: 89.1 µM [inhibitor, partial curve, poor fit]"}
{"smiles": "Cc1ccc(C(=O)N2CCC3(CC2)COc2ccccc2NC3=O)cc1", "Potency": "inconclusive: 89.1 µM [inhibitor, single point]"}
{"smiles": "COc1ccc(CN2CC(Oc3ccccc3C(=O)NC3CC3)C2)c(OC)c1", "Potency": "inconclusive: 50.1 µM [inhibitor, partial curve, poor fit]"}
{"smiles": "CCS(=O)(=O)N1CCCC(n2c(C)cnc2C2CC2)C1", "note": "(centres undefined)", "Potency": "inactive"}
{"smiles": "CN(C(=O)c1cccn1C)C1CCc2nn(C)c(=O)n2CC1", "note": "(centres undefined)", "Potency": "inactive"}
{"smiles": "COc1cccc(-c2ccc(C(=O)N3CCC(NC(=O)C4CC4)CC3)cc2)c1", "Potency": "inconclusive: 56.2 µM [inhibitor, partial curve, poor fit] and inconclusive: 79.4 µM [inhibitor, partial curve, poor fit]"}
{"smiles": "COCCn1cc(C(=O)NC2CCCc3c2[nH]c2ccccc32)c2ccccc2c1=O", "note": "(centres undefined)", "Potency": "active: 44.7 µM"}
{"smiles": "CC(=O)N[C@@H]1C=C[C@@H](c2c(C)nn(-c3ccc(C)c(Cl)c3)c2C)C1", "Potency": "inconclusive: 44.7 µM [inhibitor, partial curve, poor fit]"}
{"smiles": "Cc1ccc(-c2cc3c(ccn3Cc3cccnc3)c(C3=CCOCC3)n2)cn1", "Potency": "active: 44.7 µM"}
{"smiles": "O=C1NC(C(=O)Nc2ccccc2)Cn2cccc21", "note": "(centres undefined)", "Potency": "inactive"}
{"smiles": "Cc1ccc2[nH]nc(C(=O)N3CCCC(N(C)CCc4ccccc4)C3)c2c1", "note": "(centres undefined)", "Potency": "inconclusive: 20 µM [inhibitor, full curve, poor fit]"}
{"smiles": "Cc1cccc(NC(=O)N2CCC(CCNC(=O)c3cccs3)CC2)c1", "Potency": "inactive"}
{"smiles": "Cc1nc(-c2ccccc2)n(Cc2nc(-c3ccccc3)oc2C)c(=O)c1CCO", "Potency": "inconclusive: 56.2 µM [inhibitor, partial curve, poor fit]"}
{"smiles": "CC(=O)NC1(C)CCN(Cc2ccc(-c3ccc(Oc4ccccc4)cc3)cc2)C1", "note": "(centres undefined)", "Potency": "inconclusive: 22.4 µM [inhibitor, full curve, poor fit]"}
{"smiles": "Cc1nn(-c2ccccc2)c2c1C(C(C)C)N(C1CCN(C(=O)c3ccccc3F)C1)C2=O", "note": "(centres undefined)", "Potency": "active: 79.4 µM"}
{"smiles": "COCC1CN(S(=O)(=O)c2cc(Cl)ccc2OC)CC12CCNCC2", "note": "(centres undefined)", "Potency": "inactive"}
{"smiles": "O=C(c1cn(C/C=C/c2ccccc2)nn1)N1CCCN(C2CCCCC2)CC1", "Potency": "inconclusive: 17.8 µM [inhibitor, full curve, poor fit]"}
{"smiles": "N#Cc1ccc(CN2CCc3nc(C(=O)NCc4cccc(F)c4)oc3CC2)cc1", "Potency": "inconclusive: 100 µM [inhibitor, partial curve, poor fit]"}
{"smiles": "COCCC(=O)N1CC(Oc2ccccc2-c2nc(C3CC3)no2)C1", "Potency": "inactive"}
{"smiles": "Cc1ccc(C(=O)N2CCC3(CC2)NC(=O)N(c2cccc(F)c2)N3)cc1", "Potency": "inconclusive: 39.8 µM [inhibitor, full curve, poor fit]"}
{"smiles": "CC(C)NC(=O)C1CCC(=O)N1C1CCN(C(=O)c2ccc(Cl)cc2)CC1", "note": "(centres undefined)", "Potency": "inactive"}
{"smiles": "CCOc1cccc(CNC(=O)c2ccc3c(c2)N(S(C)(=O)=O)CC3)c1", "Potency": "inconclusive: 31.6 µM [inhibitor, full curve]"}
{"smiles": "COc1ccc(-c2cc(N3CCC(NC(=O)c4ccc(Cl)cc4)C3)n[nH]2)cc1", "note": "(centres undefined)", "Potency": "inconclusive: 89.1 µM [inhibitor, single point]"}
{"smiles": "COc1ccccc1-c1ccc2c(C(=O)N3CCC(Cc4ccccc4)CC3)nn(C)c2n1", "Potency": "active: 79.4 µM"}
{"smiles": "Cc1cc(NC(=O)CC[C@H]2NC(=O)c3ccccc3NC2=O)nn1C", "Potency": "inactive"}
{"smiles": "CN1Cc2ccc(C(=O)Nc3ccc(OC(F)(F)F)cc3)cc2OCC1=O", "Potency": "inconclusive: 28.2 µM [inhibitor, full curve]"}
{"smiles": "CC(=O)N1CCC(N2C[C@H](O)C[C@H]2c2nc(-c3cccc(C)c3)no2)CC1", "Potency": "inconclusive: 100 µM [inhibitor, partial curve, poor fit]"}
{"smiles": "CNC(=O)c1cc(C2CC2)nc2c1c(C1CCN(C(=O)c3ccc(C)cc3)CC1)nn2C", "Potency": "inactive"}
{"smiles": "CC(C)(C)c1ccc(C(=O)N2CCN(C(=O)c3nnn4c3COC(c3ccccc3)C4)CC2)cc1", "note": "(centres undefined)", "Potency": "inconclusive: 50.1 µM [inhibitor, partial curve, poor fit]"}
{"smiles": "CN1c2cc(C(=O)NCCCc3ccccc3)ccc2C(=O)N2CCCC21", "note": "(centres undefined)", "Potency": "inconclusive: 31.6 µM [inhibitor, partial curve, poor fit]"}
{"smiles": "Cc1ccc(CN2CC(Oc3ccccc3C(=O)N3CCOCC3)C2)s1", "Potency": "inconclusive: 35.5 µM [inhibitor, partial curve, poor fit]"}
{"smiles": "CC1CCN(C(=O)C2COC3(CCC(C)CC3)N2C(=O)c2ccc(F)cc2)CC1", "note": "(centres undefined)", "Potency": "inactive"}
{"smiles": "O=C(NCc1cccnc1)c1ccc2nnc(-c3ccoc3)n2c1", "Potency": "inactive"}
{"smiles": "Cc1ccc(Nc2ccnc(N3CCC(NC(=O)c4ccc(C(F)(F)F)cc4)CC3)n2)cc1", "Potency": "inconclusive: 22.4 µM [inhibitor, full curve, poor fit]"}
{"smiles": "Cc1cc(C)cc(C(=O)N2CCC(Cc3nc(-c4cnccn4)no3)CC2)c1", "Potency": "inactive"}
{"smiles": "CC(C)(C)CC(=O)Nc1nc2c(s1)C[C@@H]1[C@](C)(CO)[C@H](O)CC[C@@]1(C)[C@@H]2CC(=O)NCc1ccccc1", "Potency": "inconclusive: 50.1 µM [inhibitor, partial curve, poor fit]"}
